Experimental data published in the supplement of paper PMC12217912.
This is one part of the list. Sequences were assembled here from the parent chain. Inactive controls read about 0.05.

B1: TEV protease; numbered along this chain (parent)
chain: MGESLFKGPRDYNPISSSICHLTNESDGHTTSLYGIGFGPFIITNKHLFRRNNGTLVVQSLHGVFKVKDTTTLQQHLVDGRDMIIIRMPKDFPPFPQKLKFREPQREERICLVTTNFQTKSMSSMVSDTSCTFPSGDGIFWKHWIQTKDGQCGSPLVSTRDGFIVGIHSASNFTNTNNYFTSVPKNFMELLTNQEAQQWVSGWRLNADSVLWGGHKVFMVKPEEPFQPVKEATQL

Variants of: B1
Assay: raw area under fraction-flipped curve 0-4 h after induction (AUC4h, not background-subtracted), DNA-recorder readout of cleavage of the substrate (dimensionless); higher = more cleavage of the substrate by the protease variant
Conditions: temperature: 34 °C; time window: 0-4 h after rhamnose induction
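Note: Bxb1 expression induced with 0.2% (w/v) L-rhamnose at OD600 near 0.5, cultures sampled hourly, flipped fraction per protease–substrate barcode pair counted by paired-end Illumina sequencing.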

Variant	area with substrate CNLYFQS	area with substrate HNLYFQS	area with substrate LNLYFQS	area with substrate MNLYFQS	area with substrate PNLYFQS	area with substrate SNLYFQS	area with substrate TNLYFQS	area with substrate WNLYFQS	area with substrate YNLYFQS	area with substrate GNLYFQS	area with substrate INLYFQS	area with substrate KNLYFQS	area with substrate RNLYFQS	area with substrate VNLYFQS	area with substrate NNLYFQS	area with substrate QNLYFQS	area with substrate FNLYFQS
K230G	0.0738	0.0674	0.0588	0.0667	0.0678	0.0653	0.085	0.054	0.0654								
E231G	0.0728	0.0914	0.0463	0.0724		0.0826	0.0596	0.0556	0.0718	0.0731	0.04	0.078	0.046	0.0581			
E231M	0.0829	0.0496		0.0751	0.0773	0.0897	0.0684	0.0628	0.0627		0.0547			0.0684	0.0988		
A232P	0.0747		0.0565	0.09	0.0877	0.0721		0.051				0.064			0.0736		
T233D	0.0575	0.054	0.0514		0.0663		0.0614	0.068	0.072		0.0496	0.0709				0.0633	
T233S	0.0769	0.0756	0.065	0.0577	0.104	0.0711	0.0659	0.0883	0.0622						0.0636		0.057
L235M	0.063	0.0675	0.0546	0.0835	0.0682	0.069		0.062	0.0535	0.0616	0.0599						
W144L		0.063	0.0485		0.0772		0.0656		0.081	0.0738	0.0689						0.122
R160A					0.0756	0.0696	0.0573	0.0722	0.0648	0.0677	0.0588			0.0671		0.0654	0.0768
T176L		0.0529	0.0524	0.0646	0.0586	0.0635	0.0596	0.0571	0.0516	0.0505						0.0448	0.0602
T192Y					0.0792		0.0584	0.0649	0.0334								0.0565
T72P		0.0401			0.0631		0.0574	0.0324		0.0688	0.0949				0.0551		
E224T			0.0668	0.0623	0.0676	0.104	0.0679	0.0485		0.0534	0.0653	0.0599		0.0559	0.0755		
V64F		0.0584												0.0763			
K120L		0.0452	0.0685	0.0259	0.0664		0.0567	0.0653			0.0642						
V200E					0.09		0.0588	0.0843							0.0614		
